Data: the supplement of paper PMC10338343
± gives the standard deviation. The full ranking holds about 6,600 sequences; the median of “pre-steady-state target cleavage rate” is about 0.07, and the highest 2% start at about 0.72. The list shows a part of the results, in another mix than the full data.

system: MIWI (PIWIL1) piRISC loaded with Kctd7 piRNA (30 nt); assay: pre-steady-state target cleavage rate (min^-1); MIWI and MILI are mouse PIWI proteins and EfPiwi is from a freshwater sponge; tags in brackets are library labels; higher = faster piRNA-guided slicing of the target; conditions: guide: Kctd7 piRNA 5'p-UGUUAAUCUCUCAGAGAAGGUGACAGUGAU; auxiliary factor: 500 nM mouse GTSF1
How it was run: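 The pre-steady-state cleavage rate was calculated from a burst-and-steady-state fit. Data came from Cleave-'n-Seq, in which […] transcribed, DNA-blocked target RNA library was mixed with 1 nM active affinity-purified piRISC carrying one synthetic guide, with or without 500 nM GTSF1 partner protein, in HEPES–potassium acetate buffer at 33 °C for 0–8 or 0–960 min. Uncleaved targets were sequenced and normalised to depth and to weakly complementary targets, three trials were pooled, and k3 was capped at 0.0001 min^-1.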
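Further: 1 nM active piRISC with 0.1 nM target library at 33 °C single turnover.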

Sequence	pre-steady-state target cleavage rate
UACACUGUCAGCUUCUCUGAGAGAAUAACA	0.305 ± 0.058
UAGUCUGACACCUUCUCUGAGUGAUUAACA	0.0171 ± 0.0018
UACACUGUCACGUUCUCUCAGAGAUUAACA	0.0587 ± 0.0073
UAGUGACAGUGGUUCUCUGAGAGAUUAACG [g2:g18:cont:t1G]	< 0.0001
UUCACUGUCACCUUCUCUGUGAGAUUAAGA	0.0667 ± 0.015
UAGUGACUCACCUUCUCUGUGAGAUAAACA	0.0613 ± 0.01
UAGUGAGUCAGCUUCUCUGAGAGAUUAAGA	0.149 ± 0.029
UAGUGACUCACGUUCUCUGAGAGAUUAACA	0.398 ± 0.03
UAGUGACAGUCCUUCUCUGAGAGAUCUAACA	0.00933 ± 0.0031
UAGACUGUCACCUUCUCUGAGAGAUUACA	0.286 ± 0.047
UUCACUGUCACCUUCUCAGAGACAUUAACA	0.138 ± 0.019
UUCACUGACACCUUCUCUGAGACAUUAACA	0.172 ± 0.027
UAGUGACAGACCAUCUCUGAGACAUUAACA	0.00493 ± 0.0025
UAGUGAGUCACCUUCUCUGAGAGAUUACA	0.157 ± 0.024
UAGUGUGUCACCUUCUCUGAGAGAUAUUGA	0.039 ± 0.014
UAGUGACUCACCUUCUCUGUCUGAUUAACA	< 0.0001
UACACUGUCACCUUCUCUGAGACAAUAACA	0.0245 ± 0.0058
UUCACUGUGUGCUUCUCUGAGAGAUUAACA	0.0554 ± 0.0083
UAGUGUGUCACCUUGUCUCAGAGAUUAACA	0.0235 ± 0.0036
AUCACUGUGCACCUUCUCUGAGAGAUUAACA	0.607 ± 0.054
UAGUGUGUCACCUUCUCUGAGAGAUUAAGA	0.237 ± 0.037
AUCACUGUCACCUUCUCUGUGACAUUAACA	0.0488 ± 0.0092
UAGUCUGUCAUCCUUCUCUGAGAGAUUAACA	0.292 ± 0.022
UAGUCUCUCACCUUCUCUGAGAGUUUAACA	0.308 ± 0.043

Sequence	pre-steady-state target cleavage rate
UAGUGACACACCUUCUCCGAGAGAUUAACA	0.205 ± 0.047
UAGUGACUCACCUUCUCUGAGACAUAAACA	0.0406 ± 0.0093
UAGUGACACACCUUCUGUGAGAGAUUAUCA	0.018 ± 0.0057
UAGUCUGAGACCUUCUCUGAGAGAUUAACA	0.437 ± 0.027
UACACUGUCAGCUUCUCUGACAGAUUAACA	0.0354 ± 0.0092
UAGUGAGUCACCUUCUCUGAGAGAUAAACA	0.418 ± 0.051
UAGUGAGUCACCUUCAGAGAGAGAUUAACA	0.00682 ± 0.0046
UACACAGUCACCUUCUCUGAGAGAUUAUCA	0.149 ± 0.026
UAGUCUGUCACCUUCUCUGAGAGAUUGAACA	0.27 ± 0.036
UAGACUGUCACCUUCUCUGAGAGAUUUAACA	0.548 ± 0.048
UACACUGUCUCCUUCUCUGACAGAUUAACA	0.365 ± 0.025
UAGACUGUCACCUUCUCAGUGAGAUUAACA	0.0175 ± 0.0032
UAGUGUGUCACCUUCUCUGAGAGAUAAACA	0.313 ± 0.033
UAGAGAGUCACCUUCUCUGAGAGAUAUUGA	0.0271 ± 0.0098
UACACUGUCACCUUCUCUGAGAGUAUAAGA	0.00892 ± 0.0052
UAGUGUGUCACCUUCACUGAGAGAUAAACA	0.16 ± 0.021
UACACUGUCACCUUCUGUGAGAGAUUAAGA	0.053 ± 0.017
UAGUCUGUCACCAUCUGUGAGAGAUUAACA	0.142 ± 0.013
UUCACUGUCACGAUCUCUGAGAGAUUAACA	0.628 ± 0.039
UAGUGACACACCUUCACUGAGAGAUUAUGA	0.00944 ± 0.0049
UAGUGACAGACCUUCUCUGGGAGAUUAACA	0.0545 ± 0.0082
AUCACAGUCACCUACUCUGAGAGAUUAACA	0.679 ± 0.039
UUCACUGAGUCCUUCUCUGAGAGAUUAACA	0.402 ± 0.026
UAGUGACUCUCCUUCUCAGAGAGAUUAACA	0.00663 ± 0.0029

Sequence	pre-steady-state target cleavage rate
UAGUGACUACCUUCUCUGAGAGAUUAACA	0.175 ± 0.016
UAGUGACAGUGCUUUUCUGAGAGAUUAACA	0.00599 ± 0.002
UUCACUGUCACCUAGUCUGAGAGAUUAUGA	0.043 ± 0.011
UUCACUGUCACCUUCUCUGAGAGAAAAAGA	0.0143 ± 0.0062
UAGUGAGUCGCCUUCUCUGAGAGAUUAACA	0.52 ± 0.045
UAGACUGUCACCUUCUCUGAGUGAUUAUCA	0.00363 ± 0.0018
UAGACUGUCACCUUCUCUGAGAGAAUUAACA	0.442 ± 0.072
AUCACUGUCACCUUCUCUGAGAGAUUCAACA	0.563 ± 0.083
UAGUGACAGUCCUUGUCUGAGUGAUUAACA	0.00435 ± 0.0023
UUCACUGUCACCUUCACUGAGAGAUUAAGA	0.134 ± 0.025
AUCACUGUCACCUUCUCUCAGAGAUAAACA	0.064 ± 0.0084
UUCACUGUCACCUUGUCUGACAGAUUAACA	0.243 ± 0.031
UAGUGAGUCACCUUCUCUGUGAGAUUAACA	0.292 ± 0.016
AUGCACUGUCACCUUCUCUGAGAGAUUAACA	0.775 ± 0.056
UAGUGACACACCUUCUCUGUGAGAUUAACA	0.165 ± 0.011
UAGUGACAGUCCUUCUCUGAGAGAUAUAACA	0.00882 ± 0.0029
UACACUGUCACCUACACUGAGAGAUUAACA	0.269 ± 0.026
UACACUGUCACCUUCUCUGAGAGAAAUUGA	0.0381 ± 0.019
UUCACUGUCACCUUCUGUGAGAGAUUAAGA	0.0367 ± 0.012
UAGUGAGUGACCUUCUCUGAGAGAUUAUGA	0.0593 ± 0.011
UAGUGACACACCAUCUCUGAGAGAUUAACA	0.274 ± 0.027
UACACUGUCACCUUCUCUGAGACUUUUUGA	0.011 ± 0.0051
UAGUCUGUCACCUUCUCUGAGAGAUAAUCA	0.0812 ± 0.017
AUCACUGUCUCCUUCUCUGAGAGUUUAACA	0.525 ± 0.084

Sequence	pre-steady-state target cleavage rate
UAGUGACAGUCCUUCUCUGAGAGAUUGAACA	0.0191 ± 0.004
UUCACUGUCUCCUUCUCUCAGAGAUUAACA	0.104 ± 0.011
AUCACUGUGACCUACUCUGAGAGAUUAACA	0.631 ± 0.046
UACACUGUCACCUUCUCACAGAGAUUAACA	0.0289 ± 0.011
UUCACUGUCACCUUCUCUGAGAGAUUAUACA	0.296 ± 0.035
UAGUCUGUCACCUUCUCUGAGCGAUUAACA	0.146 ± 0.013
UACACUGUCACCGUUCUCUGAGAGAUUAACA	0.586 ± 0.03
UAGUCUGACACCUUCUCUCAGAGAUUAACA	0.0588 ± 0.005
AUCACUGUCACCUUCUCAUGAGAGAUUAACA	0.155 ± 0.054
UAGUCUGUCACCUUCUCUGUGAGAUUAUCA	0.0651 ± 0.012
UAGUGUGUGUGCUUCUCUGAGAGAUUAACA	0.0752 ± 0.0098
UAGUGUGUGACCUUCUCUGAGAGUUUAACA	0.115 ± 0.022
UAGUGAGUCACCUUCUCACUGAGAUUAACA	0.00684 ± 0.0034
UAGUGUGUCACCUUCUCUGAGAGAUUGAACA	0.124 ± 0.018
UAGUGACACACCUUAUCUGAGAGAUUAACA	0.22 ± 0.016
UAGUGACAGACCUUCUCGGAGAGAUUAACA	0.00462 ± 0.0035
UAGUGUCUCACCUUCUCUCAGAGAUUAACA	0.0742 ± 0.0091
UUCACUGUCACCUUCUCUGAGAGUAAAACA	0.0908 ± 0.013
UAGACUGUCACCUUCUCUGAGAGAUUUUGA	0.0119 ± 0.0044
AUCACUGUCACGUUCUCUGAGAGAUUAACA	0.821 ± 0.043
UAGACUGUCACACUUCUCUGAGAGAUUAACA	0.607 ± 0.04
UAGUGACAGACCUUCUCUGAGAUAUUAACA	0.0437 ± 0.011
AUCACUGUCACCUUCUCUGAGAGAUAUUCA	0.349 ± 0.081
AACACUGUGACCUUCUCUGAGAGAUUAACA	0.652 ± 0.034

Sequence	pre-steady-state target cleavage rate
UAGUGAGUCACCUUCUCUGAAGAUUAACA	0.0113 ± 0.0044
UAGACUGUCAGGUUCUCUGAGAGAUUAAGA	0.0291 ± 0.006
UUCACACACACCUUCUCUGAGAGAUUAUGA	0.153 ± 0.035
UAGUGACAGUCCUUCUCUGAGAAAUUAACA	0.0168 ± 0.004
UUCAGUGUCACCUUCUCUGACAGAUUAACA	0.324 ± 0.027
UAGUGACUCACCUUUCUCUGAGAGAUUAACA	0.118 ± 0.014
AUCACUCUCACCUUCUCUGAGAGAUUUUGA	0.105 ± 0.029
UACACUGUCACCUUCUCUCAGUGAUUAACA	0.00572 ± 0.0047
UAGUGACUCUGCUUCUCUGAGAGAUUAACA	0.00843 ± 0.0019
AUCACUGUCACCUUCUCUGAGACUUUAAGA	0.00679 ± 0.0035
UAGACUGUCACCUACUCUGAGAGAUAAACA	0.261 ± 0.034
UAGUGACUCACCUUCUCUGAGACGAUUAACA	0.0054 ± 0.0032
UACACUGUCACCUUCUGUGAGACAUUAACA	0.131 ± 0.017
UAGACUGUCACCUUCUCUGAGAGAUAAUCA	0.0918 ± 0.018
AUCACUGUCACCUUCUCUGAAAGAUUAACA	0.464 ± 0.03
UACACUGUCACCUUCUCUGUGAGAAUAACA	0.0586 ± 0.011
UAGUGACAUACCUUCUCUGAGAGAUUAACA	0.12 ± 0.013
UAGUGACUCACCUACUGUGAGAGAUUAACA	0.0152 ± 0.0054
UUCACUCUCACCUUGUCUGAGAGAUUAACA	0.219 ± 0.03
UAGACUGCACCUUCUCUGAGAGAUUAACA	0.698 ± 0.046
UAGUCUGUCACCUUCUCUGAGAGAUAUUGA [g6:g26:cont:t1A]	0.0252 ± 0.009
AUCACUGUCACCUUGUCUGACAGAUUAACA	0.246 ± 0.032
UAGUGUGACACCUUCUCUGAGAGAUUAAGA	0.178 ± 0.037
UAGUGUGUCACUUCUCUGAGAGAUUAACA	0.326 ± 0.026

Sequence	pre-steady-state target cleavage rate
UAGUCUGUCACCUUCUCUGAGAGAUUAACC [g2:g26:cont:t1C]	0.35 ± 0.027
UAGUGAGUGACGUUCUCUGAGAGAUUAACA	0.283 ± 0.023
UAGUGUGUCACCUUCUCUGACAGAUUAUCA	0.0626 ± 0.015
UAGUGACAGUCCUUCUGUGAGAGAUAAACA	0.00822 ± 0.0023
AUCACUGUCACCUUCUCUGAGAGAUUUUCA	0.355 ± 0.067
UACACUCUCACCUUCUGUGAGAGAUUAACA	0.0695 ± 0.01
UUCACUGUCACCUUCUCUCAGAGAUUUUGA	0.0218 ± 0.0088
UAGUGACUCACCUACUCUGACAGAUUAACA	0.0253 ± 0.0046
UAGUCUGUCACCUUGUCUCAGAGAUUAACA	0.0318 ± 0.0044
AACACUGUCACCUUCUCUGAGAGAUAAACA	0.361 ± 0.039
UAGUGACUCACCUUCUCUGAGAGAUGAACA	0.108 ± 0.018
UAGUCUGUCUCCUUCUCUGAGAGUUUAACA	0.294 ± 0.047
UUCACUGUGACCUACUCUGAGAGAUUAACA	0.572 ± 0.035
UACACCGUCACCUUCUCUGAGAGAUUAACA	0.78 ± 0.04
UAGUGUGUCACCUUGACUGAGAGAUUAACA	0.0613 ± 0.0069
UAGUGACAGACCUUCUCUCAGAGUUUAACA	0.00706 ± 0.0029
UACACUGUCACCUUCACUGACAGAUUAACA	0.234 ± 0.031
AUCAUGUCACCUUCUCUGAGAGAUUAACA	0.517 ± 0.032
UAGACUCUCACCUUCUCUGAGAGAUAAACA	0.21 ± 0.025
UAGUGACACACCUUCUCUGAGAGAUUCACA	0.482 ± 0.1
AUCACUGUCACCUUCUCUGUAGAGAUUAACA	0.193 ± 0.061
AUCACUGUCACCUUCUCUGUCAGAUUAAGA	0.0106 ± 0.005
UACACUGUCACCUUCUCUGUGAGUUUAACA	0.142 ± 0.017
UAGUGACUCACUUCUCUGAGAGAUUAACA	0.0229 ± 0.0052
